Data: the supplement of paper PMC10126150
Values marked as one replicate rest on one cluster of the flow cell; about a third of the high ones do not repeat.

System: ATP
Assay: switch fluorescence ratio, 500 uM ATP over buffer (Cy3 cluster intensity, sum of 5 cycles each) (fold (ratio)); higher = stronger signal-on switching upon ATP binding; sequences stand for … in TCGTCGGCAGCGTCAGATGTGTATAAGAGACAGTTTTTTTTTTTTTTTTTTTTTTTTT…TC
Details: aptamer strand: ATP DNA aptamer (quencher-CACCTGGGGGAGTATTGCGGAGGAAGG + anchor), 100 nM annealed; ATP concentration: 500 uM; one replicate
Procedure, shortened: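 Imaging in selection buffer was followed by imaging after 15 min with 500 uM ATP at 22 °C, for Cy3-labelled switching-strand clusters annealed to 100 nM quencher-labelled ATP aptamer on a modified Illumina MiSeq flow-cell. Five of these buffer/ATP cycles ran, separated by NaOH stripping and re-annealing. The fluorescence ratio per cluster is summed target-cycle over summed buffer-cycle Cy3 intensity, averaged per switch-domain sequence; clusters outside 100-1000 RFU were removed.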
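Note: ATP exposure 15 min at 22 °C before imaging.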

Sequence | switch fluorescence ratio
TTGTAACAGC | 1.07
GACGTATTAC | 4.47
GCTCCGGTCC | 2.66
CGTGAGGCTT | 0.998
GCCGAATTCC | 1.05
GTCTGCATTT | 0.964
TGCCCGGGCG | 0.996
CGCGTATCCG | 1.03
AGTATGCGC | 0.98
ACAGAGTGGG | 1.03
ACGCCCGTAC | 1.7
CGCGATCGGT | 1.15
AATAAACCGC | 1.15
AAACCTTGTG | 1.03
CCATGGAGCC | 1.03
CGTAGGAGCC | 0.962
ACTAGGCTGC | 1.03
ACCTGAACGT | 0.969
AGCAATTTGA | 1.12
AAAGTTAGCT | 0.984
TTAGCATCG | 0.956
ATAGGTTCTG | 1.05
TTTGCACTGA | 0.982
GGAGGAGAC | 1.72
CGACAGCATT | 3.22
CTCAATGAGC | 0.922

Sequence | switch fluorescence ratio
TATAAGCGTA | 1.04
CTACCTATCA | 1.08
GAACTAGGAT | 1.06
CATGCGCCGG | 1.04
AGCCATTCG | 0.935
TTAGCCGGGA | 0.986
CGCCACTATA | 1.15
ACTCGGATTC | 1.05
TTTGATCATC | 1.04
CGGTTACAGT | 0.979
CAGTTAGTTA | 0.989
AGCCTGAGTA | 0.941
TTTATAGCTT | 1.01
CAGTGGATAG | 0.998
GCAGACCGTG | 1.02
GGTAAAAAGC | 1.04
GAGGAGAAGC | 0.978
TGCCTATCAC | 1.02
TCGAGTCGCG | 1.02
GGACTATGAG | 0.958
GGACCGTATT | 1.12
CTCAGGCTGT | 1.02
ACGTCCGTTG | 0.993
GGGTGATACA | 0.965
TAAGGACCGT | 1.01
ATCCTACCCC | 1.2

Sequence | switch fluorescence ratio
GCTGTGGACA | 0.988
AATTATGCAG | 1
TTGGATTATT | 0.923
TTATGGCGCG | 0.954
CGTAGGTTGC | 1
AAAACAGCGA | 1.03
TGGTGCAAAT | 1.03
AACCCTTTAA | 0.993
TCTCAGAAAT | 1.22
AGGATCTAAT | 0.971
ATTACGGTGC | 1.14
AAGAGCCGTC | 0.978
GGCCGAGTGT | 0.981
ATCTTAGAAT | 0.951
CGGACCCACT | 1.36
TAGGGTTTG | 0.997
TCCAAAGTCT | 1.07
ATATGTTTCT | 1.02
AACGGATTTA | 0.992
CTTACACAGC | 1.18
TACATACGAG | 1.4
GGCGAAATGA | 0.988
CCACGCGTGG | 0.955
GATGTTCTTT | 0.978
ATTTTGTACT | 1.02
CGTACTCCGA | 1.25

Sequence | switch fluorescence ratio
GCTGAATGCA | 0.984
TTTGTCACAG | 1.05
GAGTATTACT | 1.05
CCGGACTATG | 0.963
GGACCTTGGG | 1.03
ATTGGTTTTA | 1.43
ACTTATGTAA | 1
GAATCGTGGA | 0.993
CATAGCAGTG | 1.05
TTATCTGTGA | 0.959
TGCATCATTA | 0.962
ACAGCAACGA | 1.22
TAAGGCCTAG | 1.05
AAACAGCGCA | 1.02
TTGTCGATCA | 1.04
GTGCACCAGG | 2.13
CACAGGGGCT | 1.65
TAGTCTGATA | 0.96
TCGAGTCGTC | 1.04
ACCGCTCTGA | 1.07
GCATTTGCGG | 0.936
CAGTTATAAG | 0.989
TCTCTAGATT | 1.04
ATTGCAGAT | 0.998
TCACAGACCC | 1.15
TATGAGACT | 1.05

Sequence | switch fluorescence ratio
CATTGGCATC | 1.12
TCGAAAGTCA | 1.04
GGATTAACGC | 1.02
AAGGACCAAT | 1.04
TCATCGACA | 1.01
GCAATGCTA | 1.82
CGCTTGGGAG | 1
GTTTGAAATA | 0.986
TCGCTTCGGG | 0.979
GCATAGAGTG | 1.02
TTCAATTTAC | 1.06
AGCTCAACGT | 0.981
CGACTATAGT | 0.945
GGGACGGTTG | 0.989
GTATTTTTAA | 0.981
GTGCTTTGTT | 1.01
GCACTCTGTG | 0.989
GAAAGCAAGG | 1.18
GGTACCCAGT | 1.06
GTTTGATATG | 0.956
GGCTTCACGT | 0.97
TCTTCCTTGT | 1.09
AGGCAAAGCG | 1
GGATGTCAAC | 1.03
CGCCGTGGGC | 1.03
CCATTGTATA | 0.983

Sequence | switch fluorescence ratio
ATTGTTTAGG | 1.02
TTCGTGTTCC | 1.04
GCTTCGATTA | 1.02
CAATCGCCTG | 0.984
ACTCTGATA | 1.05
GTGATGGGG | 1.02
CTCTTAGAGG | 1.02
TTTGGGTAGC | 1.01
ACTGGTACG | 1.13
CGAATGCCAG | 0.915
GAAGGCACGC | 1.07
AGTCTAAGAT | 0.992
TAATCGAGGC | 0.949
AACAAAAGGC | 0.982
TTTCTAATA | 1.03
ATTTAGGAA | 0.92
TTACGACATT | 1.03
AAAGCGCCGA | 0.941
GCTTACTACT | 1.1
GAACCAGACG | 1.11
CTTCCCCGTA | 2.42
GTTTAGTAAA | 0.99
TGGGCTCAGA | 1
